# This is one part of the list.
# System: PfAP2-HC AP2 domain (GST-tagged)
# Experiment: gcPBM binding intensity (ln(normalized median fluorescence intensity)); higher = stronger DNA binding
# Summary of the method: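 Binding of GST-tagged P. falciparum DNA-binding domains, expressed in E. coli and used at about 25 μg on average, was carried out for 1 h in 1× PBS containing 1% milk, 0.2 mg/ml BSA, 0.5% salmon testes DNA and 0.03% Triton X-100. The target was an Agilent 4 × 180k array of primer-extended double-stranded 36-bp intergenic genomic probes plus negative controls, read with Alexa488 anti-GST antibody at 488 nm. Binding intensity is the highest Masliner-normalised natural-log median intensity across replicate spots of either probe orientation.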
row,Sequence,gcPBM binding intensity (ln)
1,TAATAATAGAAACACACACACATAGACATATATATA [CACACA_site1307],10.5
2,ATGATTATACAAAATATACACACGTGTAGACAAATA [CACACA_site1175],9.94
3,CACTTAAAAAGCTAACGTACAAATACACATATATAA [XGTACX_site1851],9.66
4,AATATATATATAAATAATATACCTATATATTTTTTG [XGTACX_negctrl_site407],9.61
5,AAAAACAATTTAATCACACATATATGTCACAAAGAT [CACACA_site5043],9.81
6,ATATTAAATATTATCACACACATAATTATTTCCATA [CACACA_site2334],9.89
7,TAATAAATTCATAATTGTACATTGAAGTATTATGCA [XGTACX_site5121],9.45
8,TTTTTTTATTTTGTATGTACATATCATTTGATATTC [XGTACX_site8449],9.86
9,TATACGTATACCTATACACACATATATTTATTTATA [CACACA_site6716],9.77
10,TATATATATAACAGAATGCACTTTATATGTTCATAT [GTGCAC_site9880],9.64
11,GATATCCTTATATTTGCACACACACCCAATAAAATG [CACACA_site1028],10.4
12,AAAAAATACAGACACACACACACACGCATATAAATA [CACACA_site7644],10.8
13,TTGGTAAATATATTTTGAATATAAGAAATATAGACG [CACACA_negctrl_site1634],9.58
14,ATTATTACTATATGTGTACACATCAACTGGTTTGAT [CACACA_site5563],9.97
15,AGTAGCGGCGGTATCATGCACACGTATAGATTGTAA [CACACA_site1587],9.77
16,ATTAAATCCGCACGCACACACACATATTAAGAAAAA [CACACA_site6062],10.3
17,GTTGAAAAAAATATATGTACGTATATATGTATGTAT [XGTACX_site8201],9.82
18,TTGTTTATATATATATGTACATATTTTAAGGCATCC [XGTACX_site6976],9.44
19,CCACGTATACGATGCACACGTATGCTTTATATATAG [CACACA_site4108],9.74
20,TTTATTTTGTTTATGGTGCATTTTATGTAAATATAT,9.77
21,AAAATATATTATTATTGTACATATATTTTCATTTAC [XGTACX_site4593],9.86
22,AATTTTTATACGGATACACACAAAAAAAAATAAAAA [CACACA_site897],9.78

row,Sequence,gcPBM binding intensity (ln)
1,TAAATATATTTATAAGCACACACTAATAAACCCACA [CACACA_site390],10.7
2,AAGGCATATATAATTTGTACATATTAAGAATTAGAT [XGTACX_site8660],9.66
3,AAGAAAATAAAAAGGTAAATATGTATAAATAAATAA [TGCATGCA_negctrl_site88],9.73
4,TTTTTTGAAAATAAATGTACGAATTTTATATTTAAA [XGTACX_site2768],9.21
5,TGAAATAAAATTATTTGTACATATCGGAAAAAAAAA [XGTACX_site7131],9.45
6,AAATTACCCATCCATACACACATATTTTTTTTAATT [CACACA_site2189],10.2
7,GATACAGATGGACACACACACATACATAAATACATA [CACACA_site5833],11.3
8,AATAAATAAATAAATAAATAAATATATATATATATA [GTGCAC_negctrl_site330],9.58
9,TAATGACAATAAAAATAAATAAATAAAAAAAAAAAA [TGCATGCA_negctrl_site321],9.55
10,ATATATTATCTGTACACACACATATAAGGGATTATA [CACACA_site4180],10.3
11,TTATGCATATATTATGCATGTAGTTTTAAATCACAT [TGCATGCA_site104],9.51
12,TATATACACATTTTTATACACACTTGTTTTATAAAA [CACACA_site8139],9.83
13,AAAAAATACATACATACACACATATTTATTTATATA [CACACA_site6554],9.99
14,GCACAAATATATATATATATATATATATATATATAT [GTGCAC_negctrl_site661],9.52
15,ATAATTATATACCATGCACACAAATATTCATACAGG [CACACA_site9343],9.9
16,AAGAACCATATTTAAACACACATACCTATATAAATA [CACACA_site7553],9.88
17,TACAATATAAAATACACACACACAAACATATATTTA [CACACA_site5941],10.5
18,TATATATATTTATAATGTACACATATATGTAAATAT [XGTACX_site3695],9.66
19,TGCCCTAACCATACTACACACACTGCTCAAAATAGT [CACACA_site2219],10.6
20,ATACGAATAAATTTCGCATGCAGCATATATATCAAT [TGCATGCA_site612],9.62
21,TGTACAAATATGTTGAAAATAAAATTTCAATATATT [XGTACX_negctrl_site13],9.32
22,AACGAAAATAAGAAAAGTACAAAAAATACCAAATAA [XGTACX_site6171],9.76
